Laboratory results: PubChem BioAssay AID686978 (National Center for Advancing Translational Sciences (NCATS), 2013)
The campaign covered roughly 420,000 compounds. About 64,000 (15%) were called active. The inconclusive results got no clear call from the source; some entries with a clear call stand among them for comparison. The call rests on the fitted dose curve; in most records, active means well fitted inhibition curve with a large enough effect; inconclusive means small, poorly fitted or top-dose-only effect; inactive means flat fitted curve, though single readings scatter. No potency is given beside an inconclusive call; the fits are too rough.

Experiment: qHTS for Inhibitors of human tyrosyl-DNA phosphodiesterase 1 (TDP1): qHTS in cells in absence of CPT; further: nearly all actives have a fitted effect of over 55% in size
Settings: DT40 Tdp1-/- hTDP1 cells, no CPT, ATP luminescence, 48 h; activity change, negative = growth inhibition: at 46.2 µM (top of the series)
In short: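 Luminescent ATP content (CellTiter-Glo) served as the growth readout. Knockout chicken DT40 cells expressing human TDP1 were exposed to compounds without camptothecin for a minimum 48 hr at 37 °C.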
On the % scale 0 is the no-effect control and ±100 the full control effect; potency means the concentration at half of the fitted maximal effect; tags describe the fitted curve by direction and shape.

Compound	Potency	activity change, negative = growth inhibition
Cc1cccc(C(=O)N2CCC(=O)N([C@H](COCc3cccc(C(F)(F)F)c3)Cc3ccccc3)CC2)c1	active: 16.4 µM	
COc1ccc([C@H]2CC(=O)C=C(c3cc4ccccc4s3)C2)cc1OC	inconclusive [inhibitor, single point]	
O=S(=O)(Nc1cccc2cccnc12)c1ccc(S(=O)(=O)N2CCCC2)cc1	active: 13 µM	
COc1ccc(OC)c2sc(NC(=O)C3COc4ccccc4O3)nc12 (centres undefined)	inconclusive [inhibitor, single point]	
Cc1ccc(Nc2nc3ccc(Cl)cc3n3cnnc23)cc1F	inconclusive [inhibitor, partial curve]	
CN(C)c1ccc(-c2nc(NC3CCNCC3)c3ccccc3n2)cc1	active: 1.16 µM	
CCOc1ccc(C(=O)NCC(=O)OCc2c(F)cccc2Cl)cc1	inconclusive [inhibitor, partial curve]	
Cc1occc1-c1nnc(SCC(=O)NCc2cccs2)n1CC1CCCO1 (centres undefined)	inactive	
COc1cc2c(cc1NC(=O)COC(=O)[C@@H](NS(=O)(=O)c1cccc(Cl)c1)C(C)C)oc1ccccc12	active: 16.4 µM	
COc1ccc(-n2c(COc3ccc4c(c3)OCO4)nnc2SCC(=O)O)cc1	inconclusive [inhibitor, single point]	
CCN1CCN(C(=O)CN(CCc2ccccc2)S(C)(=O)=O)CC1		inconclusive: -37.5% [inhibitor]
CC1=C(C(=O)OC2CCCCC2)C(c2ccccc2Br)NC(=O)N1 (centres undefined)	inconclusive [inhibitor, single point]	
CC(Sc1ccccc1)C(=O)N1CCN(S(=O)(=O)c2cccc(Br)c2)CC1 (centres undefined)	inactive	
Cc1ccc(NC(=O)NNC(=O)c2cccs2)cc1	inactive	
COCCN(C(=O)CCCC(=O)Nc1ccccn1)C(C(=O)NC1CCCCC1)c1ccc(C)cc1 (centres undefined)		inconclusive: -37.2% [inhibitor]
CN1CCCCc2c1nc1c(c2N)CCCC1	inactive	
CC(O)CNC12CC3CC(CC(C3)C1)C2 (centres undefined)	inactive	
CC[C@@H](C)[C@@H](C(=O)Nc1ccc(C)cc1)N1Cc2ccccc2C1=O	inconclusive [inhibitor, partial curve]	
Cn1c(=S)sc2ccc3ccccc3c21	inactive	
CCOC(=O)c1c(NC(=O)c2cc(CC(C)C)on2)sc(C(C)=O)c1C		inconclusive: -6.72% [inhibitor]
Cc1ccc(CN(C(=O)COc2ccc(Cl)cc2C)C2CCS(=O)(=O)C2)o1 (centres undefined)	active: 23.1 µM	
Cc1ccc(NC(=O)c2cc3c(=O)n(Cc4ccco4)ccc3nc2C)cc1C	inconclusive [inhibitor, single point]	
CCOc1ccc(CN(C)C(=O)CNC(=O)c2ccc3ccccc3c2)cc1OC	inconclusive [inhibitor, single point]	
Cc1noc(C)c1COC(=O)C1CCN(S(=O)(=O)c2ccc(F)cc2)CC1	inactive	
Cc1nc2sc(C(=O)N(C)c3ccccc3)c(NC(=O)c3ccccc3Cl)c2c(C)c1C	inconclusive [inhibitor, single point]	

Compound	Potency	activity change, negative = growth inhibition
Cc1cc(NCCCN2CCOCC2)n2ncc(-c3ccc(Cl)cc3)c2n1	inconclusive [inhibitor, single point]	
c1ccc(-c2cccc(N3CC4(CCNCC4)C3)c2)cc1	active: 9.2 µM	
CCn1c(=O)c(C(=O)NCc2ccc(F)cc2)c(O)c2ccccc21	inconclusive [inhibitor, single point]	
CSc1ccc(C2c3c(oc4cc(C)cc(C)c4c3=O)C(=O)N2CCO)cc1 (centres undefined)	active: 23.1 µM	
Cc1ccccc1NC(=O)Cc1nnc(SCC(=O)N2CCN(c3ccccc3)CC2)n1C	inconclusive [inhibitor, partial curve]	
COc1ccc(C2C(C(=O)Nc3ccccc3OC)=C(C)Nc3c(C(=O)Nc4ccccc4)cnn32)c(OC)c1 (centres undefined)	inconclusive [inhibitor, single point]	
O=C(c1ccncc1)c1ccc(N2CCN(C3CC(=O)N(Cc4cccs4)C3=O)CC2)cc1 (centres undefined)	active: 23.1 µM	
COc1ccc(CNC(=O)C2(CC3CC(c4ccccc4)=NO3)CCN(C(=O)c3cccc(O)c3)CC2)cc1 (centres undefined)	inconclusive [inhibitor, single point]	
Cc1ccc(-n2nc(C(=O)O)c3ccccc3c2=O)cc1C	inconclusive [inhibitor, partial curve]	
O=C(NC1CCCC1)C1CC(=O)N(c2ccc(F)cc2)C1 (centres undefined)	inactive	
COc1ccc(-c2ccc(N3C(c4ccsc4)=Cc4ccc(F)cc4C3c3c[nH]c4ccccc34)cc2)cc1 (centres undefined)	active: 18.4 µM	
CCOc1ccc(NC(=O)N(Cc2c[nH]c3ccccc23)C2CCCCCC2)cc1	inconclusive [inhibitor, partial curve, poor fit]	
O=C(Nc1ccccc1N1CCCCC1)c1ncoc1-c1ccc(F)cc1	inconclusive [inhibitor, single point]	
Cn1c(=S)c2[nH]c(SCCN3CCCC3)nc2n(C)c1=O	active: 23.1 µM	
N#Cc1ccccc1OCC(=O)Nc1ccc(S(=O)(=O)N2CCOCC2)cc1	inconclusive [inhibitor, single point]	
O=C(Nc1ccc(OC(F)(F)F)cc1)c1cccc(-n2cnnn2)c1	inconclusive [inhibitor, partial curve]	
Cc1ccccc1-c1cn(-c2ccccc2)c(=S)[nH]1	inconclusive [inhibitor, single point]	
CN1CCN(C(=O)c2ccc(F)c(F)c2)CC1	inactive	
O=C(Cn1c2ccccc2c(=O)c2ccccc21)N/N=C/c1ccc(N2CCCC2)c([N+](=O)[O-])c1	inconclusive [inhibitor, single point]	
COc1ccc(/C=N/Nc2nc3ccccc3s2)cc1O	inconclusive [inhibitor, partial curve]	
COc1ccc(CCNC(=O)CNCC2CCCO2)cc1OC (centres undefined)	inactive	
CC(NC(=O)CN1C(=O)NC2(CCCCC2)C1=O)c1ccc(S(N)(=O)=O)cc1 (centres undefined)	inactive	
O=C1c2ccccc2C(=O)N1CCC(c1ccccc1)c1ccco1 (centres undefined)	inconclusive [inhibitor, single point]	
N#Cc1ccc(-c2ccc(F)cc2)nc1SCC(=O)Nc1sc2c(c1C#N)CCC2	inactive	
Cc1ccc(NS(=O)(=O)c2ccc(OCC(=O)NCc3ccncc3)cc2)cc1	inactive	

Compound	Potency	activity change, negative = growth inhibition
CC(C)CCNC(=O)CCn1c(=O)c2cccn2c2cccnc21	inactive	
CC(C)C[C@H]1CN(CCCC[C@H]2CNC(=O)C(=O)N2CCc2ccccc2)C(=O)C(=O)N1CC1CCCCC1	inconclusive [inhibitor, single point]	
N#C/C(=N\Nc1ccc([N+](=O)[O-])cc1)C(N)=S	active: 23.1 µM	
CC(C)C1=CC2=CC[C@@H]3[C@](C)(CO)CCC[C@]3(C)C2CC1 (some centres undefined)	inconclusive [inhibitor, single point]	
COc1ccc(C2=NOC(C3(S(=O)(=O)c4ccccc4)CC(O)C3)C2)cc1 (centres undefined)	inactive	
O=C(CSc1nnc(Nc2ccccc2)s1)NC1CCCC1		inconclusive: -30.1% [inhibitor]
COC(=O)c1cccc(CC2(C)C(=O)Nc3ccc(OC(F)(F)F)cc32)c1 (centres undefined)	inconclusive [inhibitor, single point]	
O=C(COC(=O)c1ccccn1)NCc1cccc(Cl)c1	inactive	
CC(Oc1ccccc1)C(=O)Nc1ccc(NC(=O)c2ccccc2)cc1 (centres undefined)	inactive	
CCOc1ccc(NS(=O)(=O)c2cccc(C(=O)NCC3(N(C)C)CCCCC3)c2)cc1	inconclusive [inhibitor, single point]	
c1cncc(-c2ccc3[nH]ccc3c2)c1	inconclusive [inhibitor, single point]	
N#Cc1ccccc1-c1ccc2ncnc(NCc3ccccc3)c2c1	inconclusive [inhibitor, single point]	
CCN(CC)CCCC(C)NC(=O)c1ccc(C(F)(F)F)cc1 (centres undefined)	inconclusive [inhibitor, partial curve]	
COc1cc(/C=N/NC(=O)c2cnccn2)ccc1O	inactive	
O=C(COC(=O)c1ccccc1C(=O)N1CCN(c2ccccc2)CC1)Nc1ccccc1	inconclusive [inhibitor, single point]	
O=S(=O)(NCC1CCCO1)c1ccc(Cl)nc1 (centres undefined)	inactive	
Cc1[nH]nc(SCC(=O)NCc2ccc(Cl)cc2)c1[N+](=O)[O-]	inactive	
CCOc1cc(NC(=S)NCC(C)C)c(OCC)cc1NC(=O)c1ccco1	inconclusive [inhibitor, single point]	
CCCCN1C(=O)/C(=C(/C#N)C(=O)N2CCCC2)c2ccccc21	active: 20.6 µM	
S=C(Nc1ccccc1)c1nc2ccccc2s1	inconclusive [inhibitor, single point]	
COc1cc(C(=O)NN=Cc2ccc(N(C)C)cc2)cc(OC)c1OC	active: 0.92 µM	
Cc1ccnc(NC(=O)c2c(C)oc3ncn(CC(C)C)c(=O)c23)c1		inconclusive: -31.4% [inhibitor]
O=C(COC(=O)c1ccc(N2CCCC2=O)cc1)c1ccccc1	inactive	
Cc1ccc(CNC(=O)Nc2cn(CC(C)C)c(=O)c3ccccc23)cc1	inconclusive [inhibitor, single point]	
